PubChem BioAssay AID1963576 (National Center for Advancing Translational Sciences (NCATS), 2024)
Out of some 46,000 compounds screened, about 60 (0.1%) were called active. Not shown: some 3% with an inconclusive outcome. The call rests on the fitted dose curve; in most records, active means well fitted inhibition curve with a large enough effect; inconclusive means small, poorly fitted or top-dose-only effect; inactive means no such curve, though single readings can be large or run the other way. The list shows a part of the results.

test: Primary qHTS assay for Inhibitors of ovarian cancer metastasis using an organotypic tumor microenvironment (TME) model.; further: nearly all actives have a fitted effect of over 65% in size;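 on activity change, negative = inhibition: plate controls were DMSO wells for no effect and tomatine positive control wells for full effect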; conditions: SKOV3ip1-GFP adhesion/invasion on 3D omental model, fluorescence; series mostly up to 45.8 µM; activity change, negative = inhibition: at the top concentration
Summary of the method: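 qHTS, 4-pt dose (0.36-46 umol/L); SKOV3ip1-GFP, 1,200 cells/well, no FBS; primary omental fibroblast/mesothelial co-culture 48 h pre-grown; 2 h RT + 16 h 37 C; PBS wash, 4% PFA; GFP count 488/509 nm.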

Activity change, negative = inhibition, inactive:
CCc1ccc(S(=O)(=O)Nc2cc3c(cc2N2CCOCC2)n(C)c(=O)c(=O)n3C)cc1 15.2%, O=c1c(N2CCCCC2)csc2ccc(F)cc12 13.8%, CCOc1ccc(NC(=O)CC2C(=O)N(c3ccccc3)C(=O)N2Cc2cccc(OC)c2)cc1 (stereo unspecified) 8.21%, COCCCNC(=O)c1nn(-c2ccc(C)cc2)c(=O)n(C)c1=O 5.61%, O=C(c1cnc(N2CCCCC2)c2ccccc12)N1CCN(c2cccc(Cl)c2)CC1 5.25%, COc1ccc(C)cc1NC(=O)N1CCN(c2nnc(C)c3c(C)n(-c4ccccc4)nc23)CC1 -9.43%, O=C1C(c2c(O)[nH]c3ccccc23)=Nc2ccccc21 -11.6%, CCNC(=O)c1c2c(nc3ccccc13)C(=O)N(C1CCCCC1)C2 2.24%, Cc1ccc(CN2C(=O)c3ccccc3Sc3ccc(C(=O)NC4CCCC4)cc32)cc1 -2.41%, CCCCNc1sc(S(=O)(=O)CCC)nc1S(=O)(=O)c1ccc(C)cc1 3.55%, COc1ccc(Cl)cc1C1CC(=O)Nc2cc3c(cc21)OCCO3 (stereo unspecified) -7.56%, CCOc1ccccc1NC(=O)CCc1c(C)nc2c3cccnc3nn2c1C -10.7%, CCc1cccc(NC(=O)Cn2ncc3c([nH]c4ccc(C)cc43)c2=O)c1 3.98%, CCc1cccc(NC(=O)CN(c2ccc(C)cc2)S(=O)(=O)c2cccs2)c1 -18.3%, CS(=O)(=O)c1ccc(C(=O)Nc2ccc(Cl)c(-c3ccccn3)c2)c(Cl)c1 -5.41%, COc1cccc(C(=O)NCCc2csc(-c3cccc(F)c3)n2)c1OC 4.28%, Cc1ccc(C(=O)N2CCc3cc(CNC(=O)CCc4ccccc4)ccc32)cc1 -4.5%, O=C(NC1CC(=O)N(c2ccccc2)C1)c1ccco1 (stereo unspecified) 6.58%, CC1(C)CC(=O)c2cc(-c3nc(-c4ccc(Cl)cc4)cs3)c(=O)n(-c3cccc(F)c3)c2C1 -0.0567%, CC1(C)CCC(c2ccc(Cl)cc2)=C(CN2CCN(c3ccc(C(=O)NS(=O)(=O)c4ccc(N[C@H](CCN5CCOCC5)CSc5ccccc5)c(S(=O)(=O)C(F)(F)F)c4)cc3)CC2)C1 -5.23%, COc1cc(C)ccc1OCCSc1nc2ccc(NC(=O)c3ccc(C)cc3)cc2s1 5.29%

outcome, inactive:
CCc1nc2ccc(C(=O)NCc3cccc(Br)c3)cc2nc1CC, Cc1cc(C)cc(NC(=O)CCCn2c(=O)c3cccn3c3ccccc32)c1, O=C(Cn1c(=O)n(CCCS(=O)(=O)C2CCCCC2)c(=O)c2ccccc21)Nc1ccc(F)c(Cl)c1, O=C(Cn1c(SCc2ccccc2F)nc2cccnc21)Nc1ccc(F)c(Cl)c1, O=C(Nc1ccc(F)cc1)Nc1ccc2snnc2c1
